From PubChem BioAssay AID686978 (National Center for Advancing Translational Sciences (NCATS), 2013)
Out of some 420,000 compounds screened, about 64,000 (15%) were called active. Inconclusive means that the source gave no clear call. Such entries were picked first, then a sample of the others. The call rests on the fitted dose curve; in most records, active means well fitted inhibition curve with a large enough effect; inconclusive means small, poorly fitted or top-dose-only effect; inactive means flat fitted curve, though single readings scatter. Potencies of inconclusive entries are left out as doubtful fits.
On the % scale 0 is the no-effect control and ±100 the full control effect; potency means the concentration at half of the fitted maximal effect; tags describe the fitted curve by direction and shape.

Assay: qHTS for Inhibitors of human tyrosyl-DNA phosphodiesterase 1 (TDP1): qHTS in cells in absence of CPT; further: nearly all actives have a fitted effect of over 55% in size
Conditions: DT40 Tdp1-/- hTDP1 cells, no CPT, ATP luminescence, 48 h; activity change, negative = growth inhibition: at 46.2 µM (top of the series) unless noted
Method in brief: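 Readout: luminescence from CellTiter-Glo after 30 min in the dark at RT. Cells: DT40 Tdp1-/- with stable hTDP1, 400/well. Exposure: compounds alone, ≥48 hr, 37 °C.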
For CCC(C)[C@@H](N)C(=O)N/N=C/c1cccc2nccnc12 (some centres undefined), the Potency was inconclusive [inhibitor, single point]. In the case of Cc1nn(-c2ccccc2)c(Cl)c1CN(C(=O)CCl)c1ccc(Cl)cc1, the Potency is reported as active: 6.51 µM. In the case of COc1cccc(C2=CC(c3ccc(OC)c(OC)c3OC)n3ncnc3N2)c1 (centres undefined), the Potency is reported as inconclusive [inhibitor, partial curve]. For COc1ccc(NC(=O)CN(C)C(=O)CCCNC(=O)c2ccc(Cl)cc2)cc1, the Potency was “inactive”. For COc1ccc(CC(=O)Nc2cc(S(=O)(=O)Nc3ccc(OC)cc3)ccc2OC)cc1, the Potency was active: 20.6 µM. For COCCNC(=O)C(c1ccc(C)o1)N(C(=O)c1snc(C(N)=O)c1N)c1cc(C)cc(C)c1 (centres undefined), the Potency was inconclusive [inhibitor, single point]. With Cc1cc(NC(=O)c2ccc(Cl)cc2)n(CCC#N)n1 the Potency was “inactive”. With CCc1cc(C(=O)Nc2cc(S(=O)(=O)N(CC)CC)ccc2N2CCOCC2)sc1C the Potency was inconclusive [inhibitor, single point]. For O=C(CSc1nc(-c2ccccc2)no1)N1CCN(c2ccccc2F)CC1, the Potency was “inactive”. With CN(C(=O)c1ccc(F)cc1)c1ccc(OCC(=O)Nc2ccccc2C(=O)O)cc1 the Potency was inconclusive [inhibitor, partial curve, poor fit]. With CC(C)NCC(O)COc1cccc2[nH]ccc12 (centres undefined) the Potency was “inactive”. For CC(C)CC1Nc2ncnc(N3CCOCC3)c2N(Cc2ccc(Br)cc2)C1=O (centres undefined), the activity change, negative = growth inhibition was inconclusive: -30.1% [inhibitor]. For COC(=O)C1=C(C)OC(N)=C(C#N)C1c1c(C)nn(-c2ccccc2)c1Cl (centres undefined), the Potency was inconclusive [inhibitor, single point]. In the case of CCOc1ccc(CCNC(=O)CN2C(=O)C(CC)Oc3ccccc32)cc1OCC (centres undefined), the Potency is reported as inconclusive [inhibitor, single point]. For Cc1cccc(NC(=O)CNCC(=O)Nc2cccc(C)c2C)c1C, the Potency was “inactive”. In the case of CCOC(=O)c1c[nH]c2c(Cl)c(Cl)ccc2c1=O, the Potency is reported as inconclusive [inhibitor, partial curve]. With CCOC(=O)[C@H]1[C@H]2COc3ccc(Cl)cc3[C@@H]2N2C(=O)CN(Cc3ccco3)C(=O)[C@@]12C the Potency was inconclusive [inhibitor, partial curve, poor fit]. In the case of Cc1n[nH]c(C)c1CCC(=O)N/N=C/c1cccc([N+](=O)[O-])c1, the Potency is reported as “inactive”. In the case of O=C(c1ccc2c(c1)OCO2)C1CCCN(Cc2cn[nH]c2-c2cccc(F)c2)C1 (centres undefined), the Potency is reported as inconclusive [inhibitor, single point]. In the case of O=c1n(-c2cccc(Cl)c2)c(=O)n2n1CCC2, the Potency is reported as “inactive”. In the case of COc1cc(=O)n2c(c1C(=O)N(C)Cc1nonc1C)CCN(Cc1c(F)cccc1F)CC2, the Potency is reported as “inactive”. With COc1ccccc1-c1cc(C(=O)Nc2sc3c(c2C#N)CCCC3)no1 the Potency was inconclusive [inhibitor, single point]. For CCOc1cc(N2CCOCC2)c(OCC)cc1NC(=O)c1ccc(C)cc1, the Potency was active: 9.2 µM. With O=C(COc1ccccc1F)NNC(=O)Cn1c(=O)cnc2ccccc21 the Potency was inconclusive [inhibitor, single point]. In the case of O=C(NCc1nnnn1-c1ccc(Cl)cc1)c1ccc([N+](=O)[O-])o1, the Potency is reported as inconclusive [inhibitor, partial curve, poor fit]. With COc1ccc(OC)c(NC(=O)CSc2ccnc(=O)[nH]2)c1 the Potency was “inactive”. With Cc1ccc(C2CC(c3ccc(NS(C)(=O)=O)cc3)=NN2C(=O)c2ccco2)cc1 (centres undefined) the Potency was inconclusive [inhibitor, partial curve]. For Cc1ccc(=O)n(C(C(=O)NCc2ccco2)C(=O)c2ccc(F)cc2)c1 (centres undefined), the Potency was “inactive”. In the case of COc1ccc(NC(=O)c2c(NCc3ccc(C)o3)sc3c2CCC(C)C3)c(OC)c1 (centres undefined), the Potency is reported as inconclusive [inhibitor, single point]. For O=C(OCC(=O)N1CCCc2ccccc21)c1cc(Br)ccc1O, the Potency was “inactive”. For CC1CCCC(C)N1C(=O)COC(=O)c1cncc(Br)c1 (centres undefined), the Potency was “inactive”. For Brc1ccc(Nc2ncnc3[nH]ncc23)cc1, the Potency was “inactive”. With CN1CCN(NC(=O)CN(C)S(=O)(=O)c2cc(Cl)ccc2Cl)CC1 the Potency was “inactive”. In the case of COc1ccc(CCNC(=O)c2ccc3ccccc3n2)cc1, the Potency is reported as “inactive”. In the case of CC1Sc2ccc(C(=O)NCc3ccccc3Cl)cc2NC1=O (centres undefined), the Potency is reported as inconclusive [inhibitor, single point]. In the case of CCC(=O)c1ccc(OCC(=O)OCC(=O)NC2CCCCCC2)cc1, the Potency is reported as “inactive”. For CCOC(=O)/C(C#N)=C/Nc1ccccc1OC(F)(F)F, the Potency was “inactive”. With O=C(COc1ccccc1C(=O)Nc1ccccc1F)Nc1ccc(Br)cc1 the Potency was inconclusive [inhibitor, single point]. For Cc1[nH]n(-c2nc(-c3ccccc3F)cc(=O)[nH]2)c(=O)c1CCO, the Potency was “inactive”. For COc1ccc(-c2nnc(NC(=O)c3ccccc3[N+](=O)[O-])s2)c(OC)c1, the Potency was “inactive”. In the case of COc1ccccc1NC(=S)NCCc1ccccc1, the Potency is reported as active: 20.6 µM. In the case of CC(=O)Nc1cccc(-c2ccnc3c2CC(C(=O)NCC2CC2)O3)c1 (centres undefined), the Potency is reported as inconclusive [inhibitor, single point]. With Cc1ccc(Nc2nc(-c3c(C)nc4ncccn34)cs2)cc1 the Potency was active: 0.0065 µM. With COc1ccccc1N1CCN(S(=O)(=O)c2c(C)sc3ncn(CC(=O)Nc4cccc(Cl)c4)c(=O)c23)CC1 the Potency was inconclusive [inhibitor, single point]. With COc1ccc(N(CC(=O)NCCc2ccc(OC)c(OC)c2)S(=O)(=O)c2ccc(OC)c(OC)c2)cc1 the activity change, negative = growth inhibition was inconclusive: -31.5% [inhibitor]. For O=C(Nc1ccccc1)C1CCN(S(=O)(=O)c2ccc3c(c2)OCCO3)CC1, the Potency was inconclusive [inhibitor, full curve]. In the case of CC(C)CCOc1ncnc2c1sc1nc3c(cc12)CSC(C)(C)C3, the Potency is reported as inconclusive [inhibitor, single point]. For CCOCCCN(C(=O)Cn1nnc(-c2ccc(OC)c(OC)c2)n1)C(C(=O)NCC1CCCO1)c1ccc(F)cc1 (centres undefined), the Potency was inconclusive [inhibitor, partial curve, poor fit]. In the case of CCOc1cc(N2CCOCC2)c(OCC)cc1NC(=O)COc1cccc2cccnc12, the Potency is reported as active: 10.3 µM. In the case of CCN1CCN(C(=O)c2ccc3c(Cl)c4c(nc3c2)CCCC4)CC1, the Potency is reported as inconclusive [inhibitor, single point]. For O=C(CN1CCC(C(=O)c2ccc(F)cc2)CC1)Nc1ccc(F)cc1, the Potency was inconclusive [inhibitor, single point]. For Cc1ccc2c(c1)NC(=O)C(CC(=O)Nc1cc(Cl)ccc1C)O2 (centres undefined), the Potency was “inactive”. In the case of C=C(C)C(=O)N1CC2(CC(c3cccc(NC(=O)COc4ccc(Cl)cc4)c3)=NO2)C[C@@H]1C(N)=O (some centres undefined), the activity change, negative = growth inhibition is reported as inconclusive: -32.9% [inhibitor]. With COC(=O)c1c(-c2ccc(Cl)cc2)noc1N1CCN(c2ccc(OC)cc2)CC1 the Potency was active: 25.9 µM. With CC(SCc1ccccc1)C(=O)Nc1ccccc1 (centres undefined) the Potency was “inactive”. For CCN(C[C@H]1N[C@@](C)(C(=O)OC)[C@H]2C(=O)N(Cc3ccccc3)C(=O)[C@@H]12)C(=O)COC, the Potency was “inactive”. For Cc1nc(N2CCN(c3ccccn3)CC2)c2c(C)c(C(=O)Nc3ccc(F)c(Cl)c3)sc2n1, the Potency was inconclusive [inhibitor, single point]. With COc1cc(NC(=O)[C@@H]2CCCN2S(=O)(=O)c2cccc3cccnc23)cc(OC)c1OC the Potency was “inactive”. In the case of Cc1cccc(NS(=O)(=O)c2ccc([N+](=O)[O-])cc2)n1, the Potency is reported as “inactive”. In the case of COc1ccccc1C=C(C(=O)c1ccccc1)c1ccccc1, the Potency is reported as inconclusive [inhibitor, single point]. For O=C(NN=Cc1ccc2c(c1)CCN2)c1cccs1, the Potency was active: 14.6 µM. For CCOC(=O)C(=Cc1ccc2c(c1)OCO2)c1ccccc1, the Potency was inconclusive [inhibitor, partial curve]. With COC(=O)C1=CC(C(=O)c2cccs2)=NN(c2ccc(OC)cc2)C1C(=O)OC (centres undefined) the Potency was inconclusive [inhibitor, single point]. For CCCCC(=O)Nc1ccc(C(=O)Nc2cc(C(F)(F)F)ccc2Cl)cc1, the Potency was inconclusive [inhibitor, single point]. With CCCCN(C(=O)c1c(-c2ccccc2)noc1C)c1c(N)n(CCC)c(=O)[nH]c1=O the Potency was “inactive”. With N#Cc1cccc(NC(=O)COC(=O)c2ccccc2C(=O)c2ccc(Cl)c([N+](=O)[O-])c2)c1 the Potency was inconclusive [inhibitor, single point]. In the case of COCCNC(=O)c1ccc(N(C)S(=O)(=O)c2ccc(OC)c(OC)c2)cc1, the Potency is reported as “inactive”. For CCOc1ccc(Cl)cc1-c1cc(C(=O)Nc2ccc(F)cc2)[nH]n1, the Potency was active: 16.4 µM. In the case of CC(=O)Nc1ccc(C(F)(F)F)cc1Cl, the Potency is reported as “inactive”. In the case of COc1cc(OC)c(Nc2cc(C)nc3ncnn23)cc1Cl, the Potency is reported as inconclusive [inhibitor, partial curve, poor fit]. For Cn1cccc1C1CCCN1CC(=O)Nc1c(Cl)cc(Cl)cc1Cl (centres undefined), the Potency was inconclusive [inhibitor, single point]. In the case of CCN(c1ccccc1)S(=O)(=O)c1ccc(OC)c(NC(=O)CN(C)C)c1, the Potency is reported as inconclusive [inhibitor, full curve]. In the case of COCCNC(=O)c1c[nH]c2ccc(S(=O)(=O)N3CCc4ccccc43)cc2c1=O, the Potency is reported as active: 6.51 µM. For O=C(Nc1cccc(-c2csc(-c3ccccc3)n2)c1)c1cccs1, the Potency was active: 15.8 µM.
